Here are results for three molecules from patent US20230416360A1 (SIMCERE ZAIMING PHARMACEUTICAL, published 2023).

Experiment [1] deals with T1, cynomolgus monkey CD22-ECD-His (cynomolgus monkey).
T1 construct: extracellular domain; Bought; also called cynoCD22
The experiment is described as follows: SPR (Biacore), antibody captured on Protein A, cyno CD22-ECD-His analyte. How it is done:
Sample buffer and running buffer were HBS-EP+(10 mM HEPES, 150 mM NaCl, 3 mM EDTA, 0.05% surfactant P20) (GE Healthcare; BR-1006-69). The flow-through cell was set to 25° C. The sample block was set to 16° C. Both were pretreated with the running buffer. In each cycle, the antibody to be tested was first captured with a Protein A chip, then a single concentration of CD22 antigen protein was injected. The binding and dissociation process of the antibody and the antigen protein was recorded, and finally Glycine pH 1.5 (GE Healthcare; BR-1003-54) was used to complete chip regeneration. […] The concentration started from 200 nM (see the detailed results for the actual concentration in the test) and was diluted at 1:1, making a total of 5 concentrations. The dissociation phase was monitored for up to 600 s and was triggered by switching from sample solution to running buffer. The surface was regenerated by washing with a 10 mM of glycine solution (pH 1.5) for 30 s at a flow rate of 30 μL/min. Bulk refractive index difference was corrected by subtracting the response obtained from the goat anti-human Fc surface. Blank injection was also subtracted (=double reference). For calculation of apparent KD and other kinetic parameters, Langmuir 1:1 model was used.

In experiment [2] the target is T2, murine CD22-ECD-His (mouse, UniProt P35329 22-708).
T2 construct: extracellular domain; Bought; also called mouse CD22; murine CD22 protein
T2 sequence (looked up): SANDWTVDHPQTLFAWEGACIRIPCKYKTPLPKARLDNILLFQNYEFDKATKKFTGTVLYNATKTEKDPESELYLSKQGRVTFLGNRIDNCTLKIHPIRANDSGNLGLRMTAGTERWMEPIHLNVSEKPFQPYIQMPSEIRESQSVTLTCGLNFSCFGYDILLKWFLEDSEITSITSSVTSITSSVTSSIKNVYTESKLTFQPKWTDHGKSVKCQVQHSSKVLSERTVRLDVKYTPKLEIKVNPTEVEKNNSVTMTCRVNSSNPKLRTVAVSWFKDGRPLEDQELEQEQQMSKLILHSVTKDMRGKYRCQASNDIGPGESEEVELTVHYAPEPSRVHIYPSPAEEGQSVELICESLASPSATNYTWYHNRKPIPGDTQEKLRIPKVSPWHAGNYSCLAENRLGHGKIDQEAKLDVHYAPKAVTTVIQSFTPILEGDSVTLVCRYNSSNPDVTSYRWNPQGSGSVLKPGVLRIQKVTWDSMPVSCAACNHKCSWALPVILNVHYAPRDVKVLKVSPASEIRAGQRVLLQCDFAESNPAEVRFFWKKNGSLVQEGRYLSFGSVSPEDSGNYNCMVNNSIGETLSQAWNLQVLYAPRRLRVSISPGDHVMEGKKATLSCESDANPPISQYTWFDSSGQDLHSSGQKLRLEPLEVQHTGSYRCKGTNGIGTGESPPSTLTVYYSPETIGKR
Nature of the experiment: ELISA on coated murine CD22-ECD-His, upper panel. As for the experimental part: (§1) The plate was sealed with plastic film and incubated overnight at 4° C., the plate was washed 2 times with PBS the next day, and then a blocking solution [PBS+2% (w/w) BSA] was added for blocking at room temperature for 2 hours. […] After incubation at 37° C. for 2 hours, the plate was washed 3 times with PBS. HRP (horseradish peroxidase)-labeled secondary antibody (purchased from Sigma, catalog number: A0170) was added, and incubated at 37° C. for 2 hours, and the plate was washed 5 times with PBS. TMB substrate was added at 50 μl/well, and incubated at room temperature for 30 minutes, then a stop solution (1.0 N HCl) was added at 50 μl/well.

The target in experiment [3] is T3, human CD22 domain5-7-His (human, UniProt P20273 414-687).
T3 construct: Proximal end of membrane fragment; also called hCD22 domain5-7-His; not shown: His tag
T3 sequence: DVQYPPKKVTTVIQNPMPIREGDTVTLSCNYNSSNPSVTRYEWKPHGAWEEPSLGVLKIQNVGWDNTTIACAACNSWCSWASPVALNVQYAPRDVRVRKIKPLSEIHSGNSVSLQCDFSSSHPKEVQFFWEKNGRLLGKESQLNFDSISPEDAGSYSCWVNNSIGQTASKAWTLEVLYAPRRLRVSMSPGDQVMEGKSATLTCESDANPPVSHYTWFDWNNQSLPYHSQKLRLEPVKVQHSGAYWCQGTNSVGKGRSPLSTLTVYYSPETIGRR
The experiment is described as follows: ELISA on coated human CD22 domain5-7-His, top panel.

The target in experiment [4] is T2, murine CD22-ECD-His. The experiment is described as follows: ELISA on coated murine CD22-ECD-His, lower panel. As for the experimental part:
as §1

Experiment [5] addresses T3, human CD22 domain5-7-His. The experiment is described as follows: ELISA on coated human CD22 domain5-7-His, bottom panel.

B1: HA22 scFv-hFc (Fc fusion)
chain: EVQLVESGGGLVKPGGSLKLSCAASGFAFSIYDMSWVRQTPEKCLEWVAYISSGGGTTYYPDTVKGRFTISRDNAKNTLYLQMSSLKSEDTAMYYCARHSGYGTHWGVLFAYWGQGTLVTVSAGGGGSGGGGSGGGGSDIQMTQTTSSLSASLGDRVTISCRASQDISNYLNWYQQKPDGTVKLLIYYTSILHSGVPSRFSGSGSGTDYSLTISNLEQEDFATYFCQQGNTLPWTFGCGTKLEIK[human IgG1 Fc with changes cut from this listing]
For the molecule B1, in experiment [1], the koff stood at 0.000376 s⁻¹ and the kon was determined as 12700 M⁻¹ s⁻¹.

B2: S002-NB151-51 VHH-Fc (Fc fusion)
chain: QVQLVESGGGLVQAGGSLRLSCAASGITSDDYAIGWFRQAPGKEREGVSCMYSSDGSTYYADSVKGRFTISRDNAKNTVYLQMNSLRPEDTAVYHCAAGPWCFVTGVGREEWGQGTQVTVSS[human IgG1 Fc with changes cut from this listing]
notes: VHH cloned into vector BI3.4-huIgG1 (hinge and human IgG1 Fc), made in HEK293E; also called 5002-NB151-51
With B2, in experiment [2], the “EC50 (read off the curve)” value was about 0.2 nM. Besides, the binding result in experiment [3] is given as “no binding (tested: 100 nM)”. Further, in experiment [1], binding was characterised by a dissociation constant (Kd) of 0.507 nM, the koff stood at 8.31e-05 s⁻¹ and the association rate constant (kon) came out at 164000 M⁻¹ s⁻¹.

B3: S002-NB150-152n VHH-Fc (Fc fusion)
chain: EVQVVESGGGLVQTGGSLRLSCAASGRPFDWLTVGWFRQAPGKEREFVAAISQSGGRIFYSDSVKGRFTISRDNAKNTAFLQMNSLKPEDTAVYSCAAQMRGYSRAAYPDEYDYWGQGTQVTVSS[human IgG1 Fc with changes cut from this listing]
notes: VHH cloned into vector BI3.4-huIgG1 (hinge and human IgG1 Fc), made in HEK293E
In the case of B3, the binding result in experiment [4] and in experiment [5] was “no binding (tested: 100 nM)” throughout.
